In all, about 3,600 compounds were measured (“viability index relative to DMSO control”: median about 0.81, lowest 2% from about 0.13 on). The list shows a part of the results.
System: Plasmodium falciparum NF54 stage V gametocytes
Assay: viability index relative to DMSO control (fraction); higher = less gametocyte killing
Details: 1.25 µM, incubation time: 72 h
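Note: 384-well serum-free SaLSSA: MitoTracker Red CMXRos staining with saponin lysis, high-content imaging, treated-well particle count divided by plate-mean count of DMSO wells.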

Structure (SMILES) | viability index
O=C(NC1CC1)C1CCN(c2cccc3c2C(=O)N(Cc2cccc(C(F)(F)F)c2)C3=O)CC1 | 1.13
CC(C)CC(=O)OC1C(N2CCCCC2)c2c(ccc(C=CC(=O)N3CCCCC3)c2O)OC1(C)C (stereo unspecified) | 0.706
CCOC(=O)C1=C(N)N(c2cccc([N+](=O)[O-])c2)C2=C(C(=O)CC(C)(C)C2)C1c1ccc(Br)cc1 (stereo unspecified) | 0.543
COc1cc(Nc2cncc(-c3ccncc3)n2)cc(OC)c1OC | 0.524
Cc1cc(C)c2c(c1)c(-c1ccccc1)c(-c1ccccc1)n2CC(O)Cn1cnc(-c2ccccc2)c1-c1ccccc1 (stereo unspecified) | 0.615
O=C(C1CC1)N1CCc2cc(Br)cc(S(=O)(=O)N3CCCCC3)c21 | 0.839
Clc1ccc(-c2c[n+](Cc3ccccc3Cl)c3n2CCC3)cc1 | 1.27
CC[n+]1ccccc1C=Cc1ccc(N(C)C)cc1 | 0.895
Cc1ccc2[nH]c(C)c(Br)c(=O)c2c1 | 0.869
CCNC1=C(C(=O)c2ccccc2)N(CC(=O)c2ccc(Br)cc2)S(=O)(=O)c2ccccc21 | 0.758
O=C(Nc1ccc(-n2cccn2)cc1)C1CCN(CC=Cc2ccccc2)CC1 | 0.635
O=C(COC(c1cccs1)c1cccnc1Cl)N1CCN(C(=O)Nc2ccccc2)CC1 (stereo unspecified) | 0.869
COc1cc2nc(CN(C)C(C)c3cccs3)nc(N3CCCC3)c2cc1OC (stereo unspecified) | 0.804
O=C(Nn1c(SCc2cc(=O)n3ccccc3n2)nc2ccsc2c1=O)c1cccc(Br)c1 | 1.45
CC(C)(C)NC(=O)C(c1ccncc1)N(Cc1ccccc1Cl)C(=O)c1ccc(-c2ccccc2)[nH]1 (stereo unspecified) | 0.921
Cc1ccc(NC(=O)c2ccc(NCCCN3CCCCCC3)c([N+](=O)[O-])c2)cc1F | 1.51
CCCn1c(C=NNc2nc3ccccc3[nH]2)nc2ccccc21 | 0.456
Cc1nc([P+](c2ccccc2)(c2ccccc2)c2ccccc2)c(SCc2ccccc2)o1 | 0.203
O=C(c1cnsn1)N1CCCC(COc2cccc(CN3CCC(Cc4ccccc4)CC3)c2)C1 (stereo unspecified) | 0.827

Structure (SMILES) | viability index
CC1CN(C2CC(=O)N(c3ccccc3)C2=O)CC(C)O1 (stereo unspecified) | 1.03
OC(CNc1cccc2ccccc12)Cn1c2ccccc2c2ccccc21 (stereo unspecified) | 0.842
c1ccc(CCCNc2ccnc3cc4ccccc4cc23)cc1 | 0.52
CC1=C(C(=O)OC(C)C)C(c2ccccc2F)C2=C(CC(c3ccc(Cl)cc3)CC2=O)N1 (stereo unspecified) | 0.887
COc1cccc2c(C)cc(NCc3ccccc3Cl)nc12 | 0.724
CCc1ccc(NC(=O)C2c3ccccc3C(=O)N(CC(C)C)C2c2cccs2)cc1 (stereo unspecified) | 0.309
Cc1ccc(NC(=O)N(CCN(C)C)Cc2cc3cc4c(cc3[nH]c2=O)OCCO4)cc1 | 1.02
Cc1cc(-c2ccc(O)c(CN3CCCCC3CO)c2)c2ccccc2n1 (stereo unspecified) | 0.885
CN1CCN(NC=C2C(=O)N(c3nc4ccccc4s3)N=C2c2ccccc2)CC1 | 0.846
COCCSc1nc2sc3c(c2c(=O)n1-c1ccc(OC)cc1)CCN(C)C3 | 0.83
CN(C=CC1=[N+](C)c2ccc(Cl)cc2C1(C)C)c1ccccc1 | 0.83
Oc1ccc(Br)c(C(Nc2ccccn2)c2ccc3cccnc3c2O)c1 (stereo unspecified) | 0.969
c1ccc(OCCOc2ccc(Nc3ccnc4cc5ccccc5cc34)cc2)cc1 | 0.527
Cc1ccc(OCCCCN2CCOCC2)c([N+](=O)[O-])c1 | 0.798
O=c1cc(NC2CCN(CCCc3ccccc3)CC2)c2cc(Cl)ccc2o1 | 0.638
COc1ccc(Nc2nc(NN=Cc3cccc([N+](=O)[O-])c3)nc(Nc3ccc([N+](=O)[O-])cc3)n2)cc1 | 0.66
CCCCNC(=O)CCCNC(=O)Cn1cnc2sc3c(c2c1=O)CCCC3 | 0.812
CC(C)NCC(O)Cn1c2ccc(Br)cc2c2cc(Br)ccc21 (stereo unspecified) | 0.291
CCOC(=O)c1cnc2c(C)cccc2c1Nc1ccc(C(C)=O)cc1 | 1.08

Structure (SMILES) | viability index
CC(C)(C)c1ccc(C2CC3=Nc4ccccc4N(C(=O)c4ccccc4Cl)C(c4ccc(F)cc4)C3=C(O)C2)cc1 (stereo unspecified) | 0.491
CCOC(=O)c1cnc2c(OC)cccc2c1Nc1cccc(C(F)(F)F)c1 | 0.601
c1ccc(C2=Nc3ccccc3C(c3ccccc3)(c3ccccc3)N2)cc1 | 0.75
COc1ccc(-c2nc3cc(Cc4ccc5[nH]c(-c6ccc(OC)cc6)nc5c4)ccc3[nH]2)cc1 | 0.807
CCCOC(=O)C1=C(C)NC2=C(C(=O)CC(c3ccc(OC)c(OC)c3)C2)C1c1ccccc1Br (stereo unspecified) | 0.456
CCCCOC(=O)C1=C(C)NC2=C(C(=O)CCC2)C1c1ccc(Cl)c(Cl)c1 (stereo unspecified) | 0.721
CCC1=[N+](C)c2cccc3cccc(c23)N1C | 0.685
Cc1ccc(N=Nc2nc3ccccc3n2C)c(C)c1 | 0.333
OC(CN1CCN(Cc2ccccc2)CC1)Cn1c2ccc(Br)cc2c2cc(Br)ccc21 (stereo unspecified) | 0.279
CCCCn1c(NN=C2C(=O)Nc3ccccc32)nc2c1c(=O)[nH]c(=O)n2C | 0.785
Clc1ccc2c(c1)c(-c1ccccc1)nc1nnnn12 | 1
COc1ccccc1N1C(=N)SC(=Cc2ccc(N(C)C)cc2)C1=O | 0.908
CC(C)(C)c1ccc(O)c(CNC2CCCCC2)c1 | 0.534
COc1ccc(CCN2C(=S)NC3c4cccc(OC)c4OC2(C)C3C(=O)Nc2ccc(C)cc2C)cc1OC (stereo unspecified) | 0.378
Cc1ccc(N2C(N)=NC(N)=NC2(C)C)c(C)c1 | 1.15
CC(C)CN1C(=O)c2ccccc2C(C(=O)Nc2cc(F)ccc2F)C1c1cccs1 (stereo unspecified) | 0.53
CC(=O)N(C1=C(N2CCCCCC2)C(=O)c2ccccc2C1=O)C1CCCCC1 | 0.74
OC(CN1CCN(Cc2ccccc2)CC1)Cn1c2ccc(I)cc2c2cc(I)ccc21 (stereo unspecified) | 0.442

From the supplement of paper PMC4723716
